Source: the antibiotic and cytotoxicity screens of Wong et al. (2023)
This is one part of the list.

Each compound was assayed on HepG2 (assay: cytotoxicity call (relative viability < 0.9)). Settings: 10 µM.

| SMILES | cytotoxicity call |
| --- | --- |
| C[C@H]1CCCCO[C@H](CN(C)C)[C@@H](C)CN([C@@H](C)CO)C(=O)c2cc(NC(=O)CCCCCC(=O)Nc3ccccc3N)ccc2O1 | inactive |
| C[C@@H]1CN([C@@H](C)CO)C(=O)Cc2cc(NC(=O)CCN3CCOCC3)ccc2O[C@H]1CN(C)Cc1ccc2c(c1)OCO2 | inactive |
| O=C(C[C@H]1CC[C@H]2[C@@H](COC[C@H](O)CN2C(=O)C2CC2)O1)NCc1ccncc1 | inactive |
| C[C@@H]1O[C@@H](O[C@H]2[C@H](O)[C@@H](O)[C@H](OC[C@H]3O[C@@H](OC(=O)[C@]45CCC(C)(C)C[C@@H]4C4=CC[C@H]6[C@@]7(C)CC[C@H](O[C@H]8OC[C@H](O)[C@H](O)[C@H]8O[C@H]8O[C@@H](C)[C@H](O)[C@@H](O)[C@H]8O)[C@@](C)(CO)[C@@H]7CC[C@@]6(C)[C@]4(C)CC5)[C@H](O)[C@@H](O)[C@@H]3O)O[C@@H]2CO)[C@H](O)[C@H](O)[C@H]1O | inactive |
| COc1ccc(S(=O)(=O)Nc2ccc3c(c2)CC(=O)N([C@H](C)CO)C[C@H](C)[C@H](CN(C)C)O3)cc1 | inactive |
| C[C@@H]1CN([C@@H](C)CO)C(=O)c2cc(Br)cnc2O[C@H]1CN(C)C(=O)c1ccc2c(c1)OCO2 | inactive |

What follows are compounds tested on S. aureus RN4220 (assay: growth inhibition call (relative growth <= 0.2)). Settings: 50 µM.

| SMILES | growth inhibition call |
| --- | --- |
| Cn1ncc2c(=O)nc[nH]c21 | inactive |
| COc1ccccc1S(=O)(=O)N(C)C[C@H]1Oc2cc(C#CCC(C)C)ccc2S(=O)(=O)N([C@@H](C)CO)C[C@H]1C | inactive |
| O=c1cccn[nH]1 | inactive |
| COC(=O)c1c(C)c2c(c(C)c1O)OC(=O)c1c(C)c(Cl)c(O)c(Cl)c1O2 | active |
| CC(C)CNC(=O)C[C@H]1NCCNC1=O | inactive |
| COc1ccc(-c2coc3cc(O)cc(OC)c3c2=O)cc1 | inactive |
| O=C(O)Cc1cccc(OCCCN(Cc2cccc(C(F)(F)F)c2Cl)CC(c2ccccc2)c2ccccc2)c1 | inactive |
| C[C@@H]1CN([C@@H](C)CO)C(=O)c2cc(NC(=O)Nc3cccc4ccccc34)ccc2O[C@H]1CN(C)C(=O)Nc1cccc2ccccc12 | inactive |
| C[C@@H]1CN([C@@H](C)CO)C(=O)c2cccc(NC(=O)Nc3ccccc3)c2O[C@H]1CN(C)CC1CCCCC1 | inactive |
| C[C@@H]1CN([C@H](C)CO)C(=O)CCCn2cc(nn2)CO[C@@H]1CN(C)C(=O)Nc1cccc(Oc2ccccn2)c1 | inactive |
| C[C@H](CO)N1C[C@H](C)[C@H](CN(C)CC2CC2)OCCCC[C@H](C)Oc2ccc(NC(=O)Nc3ccc4c(c3)OCO4)cc2C1=O | inactive |
| C[C@@H]1CN([C@@H](C)CO)C(=O)c2cccc(NC(=O)C3CCOCC3)c2O[C@@H]1CN(C)Cc1ccc(-c2ccccc2)cc1 | inactive |
| COc1ccc(NC(=O)N2C[C@@H](O)COC[C@H]3O[C@H](CC(=O)NCc4ccccc4OC)CC[C@@H]32)cc1 | inactive |
| COc1c(C)cc(-c2cc3c(c(CCc4ccccc4)n2)[Si](C(C)C)(C(C)C)O[C@H]3c2ccccc2)cc1C | active |
| COc1ccc2c3c([nH]c2c1)[C@H](CO)N(C[C@]13CN(Cc2ccccc2F)C1)S(=O)(=O)c1cn(cn1)C | inactive |
| COc1ccc(-c2cc(=O)c3c(OC)c(OC)c(OC)cc3o2)cc1OC | inactive |
| Cc1noc(C)c1S(=O)(=O)Nc1ccc2c(c1)C(=O)N([C@H](C)CO)C[C@H](C)[C@H](CN(C)CC1CCCCC1)OCCCC[C@H](C)O2 | inactive |
| C[C@H](CO)N1C[C@H](C)[C@H](CN(C)C(=O)Nc2cccc3ccccc23)Oc2c(NC(=O)NC3CCCCC3)cccc2C1=O | inactive |
| COCCNC(=O)c1ccc(N2C[C@H]3C[C@@H](C2)c2cccc(=O)n2C3)c(NC(=O)c2ccc(OC)cc2)c1 | inactive |
| COC(=O)CCn1cc(F)c(N)nc1=O | inactive |
| C[C@H]1CN([C@@H](C)CO)C(=O)Cc2cc(NC(=O)Nc3ccc(C(F)(F)F)cc3)ccc2O[C@H]1CN(C)C(=O)NC1CCCCC1 | inactive |
| C[C@@H]1CN([C@H](C)CO)C(=O)c2cc(NC(=O)Cn3cnnn3)ccc2O[C@H]1CN(C)Cc1ccc(C(F)(F)F)cc1 | inactive |
| C[C@H](CO)N1C[C@H](C)[C@H](CN(C)C(=O)Nc2ccccc2F)OCCCC[C@H](C)Oc2ccc(NC(=O)C3CCCCC3)cc2C1=O | inactive |
| COc1c(O)cc2c(c1O)[C@@H]1O[C@H](CO)[C@@H](O)[C@H](O)[C@H]1OC2=O | inactive |
